# Inconclusive results, whose numbers are uncertain, are shown with a selection of clear calls. Where the call is inconclusive, the potency comes from a doubtful curve fit. Activity calls are given as the source filed them. Calls come from the whole dose curve; as a rule, active = well fitted inhibition curve with a large enough effect; inconclusive = small, poorly fitted or top-dose-only effect; inactive = no such curve, though single readings can be large or run the other way.
# Assays:
# [1] = biological target: Retinaldehyde dehydrogenase 3 (Homo sapiens) (UniProt P47895); test: qHTS for Inhibitors of the Aldehyde Dehydrogenase Family (ALDH1A3) Confirmatory screens (AID 2061311); conditions: activity change, negative = inhibition: at 46 µM (top of the series); note: nearly all actives have a fitted effect of over 60% in size
# [2] = biological target: Retinal dehydrogenase 2 (Homo sapiens) (UniProt O94788); test: qHTS for Inhibitors of the Aldehyde Dehydrogenase Family (ALDH1A2) Confirmation screens (AID 2061314); conditions: activity, negative = inhibition: at 45.9 µM (top of the series) unless noted; note: nearly all actives have a fitted effect of over 65% in size
# [3] = biological target: Retinaldehyde dehydrogenase 3 (Homo sapiens) (UniProt P47895); test: qHTS for Inhibitors of the Aldehyde Dehydrogenase Family (ALDH1A3) Primary screen (AID 2061315); conditions: ALDH inhibition qHTS; activity change, negative = inhibition: at 56 µM (top of the series) unless noted
# Potency is the fitted concentration of half-maximal effect; tags give direction and shape of the fitted curve.
smiles,measurement,setting,value
CCc1cccc(NC(=O)C2CCCN(c3cnn(Cc4ccccc4)c(=O)c3)C2)c1 (centres undefined),Potency,[1],"inconclusive: 31.6 µM [inhibitor, single point]"
O=C(NCc1ccccn1)c1cc(-c2ccc(F)cc2)c2nncn2n1,Potency,[1],"inconclusive: 31.6 µM [inhibitor, single point]"
CC(C)(C)OC(=O)N1CCN(c2ccc(NCc3ccc(-c4ccc(C(C)(C)C)cc4)o3)cc2)CC1,Potency,[1],"inconclusive: 11.3 µM [inhibitor, partial curve, poor fit]"
same,Potency,[2],"inconclusive: 3.18 µM [inhibitor, full curve]"
same,Potency,[3],"inconclusive: 0.891 µM [inhibitor, full curve, poor fit]"
CCOc1cccc(CNC(=O)c2ccc(N3CCCC3)c(NC(=O)NCc3ccccc3)c2)c1,Potency,[1],inactive
Cc1cc(=O)[nH]c(CCNc2nc(-c3ccncc3)nc3c2c(C)nn3C)n1,Potency,[1],inactive
O=C(O)c1ccc(Cn2c(SCc3ccc(F)cc3)nc3ccncc32)cc1,Potency,[1],inactive
Cc1ccc(-c2ccc3nnc(CNC(=O)c4ccccn4)n3n2)cc1,Potency,[1],"inconclusive: 31.6 µM [inhibitor, single point]"
COc1ccc(CCNC(=O)c2cc3c(=O)n4ccccc4nc3n2C)cc1,Potency,[1],"inconclusive: 6.31 µM [inhibitor, partial curve]"
Cc1cccn2c(=O)c3cc(C(=O)NCCc4ccc(S(N)(=O)=O)cc4)n(C)c3nc12,Potency,[1],"inconclusive: 31.6 µM [inhibitor, partial curve, poor fit]"
COc1ccc(-c2cncc(NC(=O)c3cccs3)c2)cc1OC,Potency,[1],"inconclusive: 15.9 µM [inhibitor, partial curve, poor fit]"
same,Potency,[2],"inconclusive: 28.3 µM [inhibitor, single point]"
same,Potency,[3],"inconclusive: 0.708 µM [inhibitor, full curve, poor fit]"
